# According to paper PMC4336329 (PLoS ONE, 2015):
# About 2,200 (0.71%) of roughly 310,000 compounds showed an effect of 50% or more. The effect is printed as a negative number. The list shows a part of the results.
# Target: human ether-à-go-go-related gene (hERG) potassium channel (human, UniProt Q12809)
# Assay: primary screen, population patch clamp on CHO cells stably expressing hERG
# human ether-à-go-go-related gene (hERG) potassium channel, sequence (Q12809 whole entry, looked up): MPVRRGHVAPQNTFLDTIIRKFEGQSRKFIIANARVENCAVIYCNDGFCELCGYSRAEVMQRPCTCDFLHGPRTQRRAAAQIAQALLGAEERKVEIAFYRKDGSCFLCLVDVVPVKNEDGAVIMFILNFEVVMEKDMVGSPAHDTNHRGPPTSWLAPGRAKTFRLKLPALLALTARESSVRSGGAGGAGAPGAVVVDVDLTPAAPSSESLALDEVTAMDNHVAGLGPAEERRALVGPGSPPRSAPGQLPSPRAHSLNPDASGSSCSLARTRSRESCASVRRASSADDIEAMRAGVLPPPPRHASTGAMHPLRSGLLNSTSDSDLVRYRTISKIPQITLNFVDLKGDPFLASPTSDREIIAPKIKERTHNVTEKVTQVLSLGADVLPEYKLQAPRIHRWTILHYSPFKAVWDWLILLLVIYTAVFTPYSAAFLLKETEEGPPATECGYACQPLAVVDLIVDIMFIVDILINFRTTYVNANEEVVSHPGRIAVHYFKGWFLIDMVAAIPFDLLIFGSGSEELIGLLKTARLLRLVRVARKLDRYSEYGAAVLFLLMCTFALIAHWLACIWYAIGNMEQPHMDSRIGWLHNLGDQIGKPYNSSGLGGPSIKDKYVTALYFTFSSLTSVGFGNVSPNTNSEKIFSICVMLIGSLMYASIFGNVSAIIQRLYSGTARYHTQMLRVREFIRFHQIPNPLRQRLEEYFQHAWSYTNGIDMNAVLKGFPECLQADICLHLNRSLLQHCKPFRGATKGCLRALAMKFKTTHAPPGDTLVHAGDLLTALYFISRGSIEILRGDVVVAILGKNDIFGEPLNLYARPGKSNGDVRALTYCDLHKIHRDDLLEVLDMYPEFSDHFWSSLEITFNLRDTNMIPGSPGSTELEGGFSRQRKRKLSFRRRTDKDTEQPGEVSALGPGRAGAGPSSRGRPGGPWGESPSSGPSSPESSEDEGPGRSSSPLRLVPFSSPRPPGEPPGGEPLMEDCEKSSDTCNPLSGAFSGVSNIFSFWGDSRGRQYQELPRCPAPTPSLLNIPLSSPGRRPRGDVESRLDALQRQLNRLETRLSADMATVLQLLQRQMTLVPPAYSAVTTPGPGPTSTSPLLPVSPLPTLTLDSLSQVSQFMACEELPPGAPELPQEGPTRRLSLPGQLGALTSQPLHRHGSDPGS
row,SMILES,"hERG current change (%, negative = inhibition) at 1uM [%]"
1,CC(O)[C@H]1CN=C(N)N1CCCCC1CCCCC1 (stereo partly drawn),12.5
2,COc1ccc(NC2SC(=O)N(CC(=O)O)C2=O)cc1 (stereo not drawn),9.88
3,CCCCn1c(SCC(N)=O)nc2sc3c(c2c1=O)CCC3,3.51
4,CC(C)(C)C(=O)Nc1ccnn1C1CCN(C(=O)c2ccc(Cl)cc2F)CC1,10.9
5,Cc1ccc(Nc2nnc(-c3ccc(N4CCOCC4)c([N+](=O)[O-])c3)c3ccccc23)cc1,-3.96
6,Cc1cc(C)cc(Oc2coc3c(CN(C)C)c(O)ccc3c2=O)c1,7.42
7,CCOc1cccc(-c2c(C(=O)N/N=C(\C)c3cccnc3)nnn2-c2nonc2N)c1,12.2
8,COc1cccc(/C=N/NC(=O)c2cnn(-c3ccccc3)c2N)c1,3.81
9,COc1ccc(S(=O)(=O)N[C@H](C(=O)O)C(C)C)cc1,7.2
10,O=[N+]([O-])c1ccc2c(c1)ncn2CCc1ccccc1,9.78
11,CCN(CC)CC(O)COc1ccc2c(c1)c(C(C)=O)c(C)n2-c1ccccc1 (stereo not drawn),1.64
12,O=C(O)Cc1ccc(N=Cc2c(O)ccc3ccccc23)cc1,0.154
13,CCOc1ccccc1/C=N/NC(=O)c1nnn(-c2nonc2N)c1CN1CCCCCC1,14.6
14,CC(/C=N/NC(=O)c1nn(C)c(C)c1Br)=C\c1ccccc1,-1.19
15,Cc1ccc(N2C(=O)C3C4CC(=O)C(c5ccccc54)C3C2=O)cc1 (stereo not drawn),4.46
16,COC(=O)/C=C/c1cnc2ccccc2c1,24.1
17,COc1ccc(N(CC(=O)N2CCc3ccccc32)S(=O)(=O)c2c(C)noc2C)cc1,5.61
18,Cc1nnc(NC(=O)CSc2n[nH]c(-c3ccccc3)n2)s1,11.7
19,O=C(c1ccc(Cl)c(S(=O)(=O)N2CCOCC2)c1)N(Cc1nnc(-c2ccccc2Cl)o1)C1CC1,9.47

row,SMILES,"hERG current change (%, negative = inhibition) at 1uM [%]"
1,CCC(C)OC(=O)C1C(c2ccccc2)C(C(=O)O)C1c1ccccc1 (stereo not drawn),8.25
2,O=C(CCN1CCN(CCO)CC1)Nc1ccc(Br)cc1,4.71
3,Cl.c1coc(CNCC2OCCc3ccccc32)c1 (stereo not drawn),-0.6
4,CCn1c(SCC(=O)c2ccc(CNC(C)=O)o2)nnc1-c1cccs1,6.31
5,Cc1ccc2c(COC(=O)c3n[nH]c4ccccc34)cc(=O)oc2c1,6.95
6,Cc1cc(C=O)c(C)n1-c1cccc(C(=O)O)c1,13.8
7,Cc1sc(NC(=O)Nc2ccccc2)c(C(N)=O)c1C,11.6
8,Cc1ccc(C)c(CN2C(=O)C3CCCN3c3ccc(C#N)cc32)c1 (stereo not drawn),-0.327
9,COc1ccc(C2=NOC(COC(=O)c3ccc4ccccc4n3)C2)cc1 (stereo not drawn),21.8
10,NC(=O)C1CCN(C(=O)C(=O)c2cn(CC(=O)N3CCCCCC3)c3ccccc23)CC1,16
11,C=C1C(C(=O)Nc2ccc(OCC)cc2)C1C(=O)Nc1ccc(OCC)cc1 (stereo not drawn),9.21
12,Cc1ccc(S(=O)(=O)CCC(=O)OCC(=O)Nc2cc(S(=O)(=O)N3CCOCC3)ccc2C)cc1,4.04
13,Cc1ccc(-n2nc3c(c2NC(=O)C(C)C)CS(=O)(=O)C3)c(C)c1,17.3
14,Cl.O=C(O)CCN1CCOCC1,15.3
15,COc1ccc([N+](=O)[O-])cc1NC(=O)C1CCCN1S(=O)(=O)c1cccs1 (stereo not drawn),16
16,CCOC(=O)c1c2ccc(OCC(=O)N/N=C/c3ccc(C)cc3)cc2n2ccccc12,0.244
17,O=C(NCCc1cccnc1)c1cc(COc2ccc(F)cc2F)on1,5.17
18,COc1ccc(C(=O)NCCS(=O)(=O)NCCc2ccccc2)cc1,1.67
19,COc1ccc(OC)c(CN2CCN(C(=O)c3cc4ccccc4cc3O)CC2)c1,2

row,SMILES,"hERG current change (%, negative = inhibition) at 1uM [%]"
1,CCCCN(CC)S(=O)(=O)c1ccccc1,-5.92
2,O=S(=O)(N1CCCCC1)N1CCNCC1,7.21
3,COc1cccc(OCC(=O)Nc2ccccc2-c2ccccc2)c1,9.8
4,Cc1ccc(-c2csc3n[nH]c(=S)n23)cc1,4.28
5,CC(Cc1c[nH]c2ccccc12)NC(N)=O (stereo not drawn),5.8
6,COc1ccc2[nH]c(C(=O)O)c(NS(=O)(=O)c3ccc(OC)c(OC)c3)c2c1,-0.371
7,CCN(CC)CCNC(=O)c1ccccc1C(=O)c1ncc[nH]1,8.33
8,Cc1c(/C(O)=C2/C(=O)C(=O)N(CCN3CCOCC3)C2c2cccs2)cnn1-c1ccccc1 (stereo not drawn),9.87
9,O=C(COc1ccc(Cl)cc1)NCCc1ccccn1,11.4
10,Cn1c(COc2ccccc2)nnc1SCC(=O)Nc1ccc2c(c1)OCO2,3.11
11,C/C=C/C=C/C(=O)N1CC[C@]23c4ccccc4N[C@H]4N(C)c5cccc6c5[C@]42CCN([C@H]6C2OC2(C)C)[C@H]13 (stereo partly drawn),1.17
12,O=C1C(c2ccc(F)cc2)N(C2CCCCC2)C(=O)CN1C1CCCC1 (stereo not drawn),-12
13,COc1cccc(Nc2ncnc3c2cnn3C)c1,7.93
14,CCOc1cc(/C=C2\SC(=O)N(c3ccc(O)cc3)C2=O)ccc1O,5.51
15,COc1ccc(S(=O)(=O)N2CCCCC2)cc1C(=O)N1CCCC1,22.9
16,O=C(Nc1ccc2c(c1)OCO2)c1ccc2c(c1)S(=O)(=O)c1ccccc1C2=O,16.4
17,Cn1c(Cc2cccs2)nnc1SCc1nc2ccccc2[nH]1,1.35
18,Cc1ccc(S(=O)(=O)N(C)c2ccc(C(=O)NCC(c3cccs3)N3CCOCC3)cc2)cc1 (stereo not drawn),18.9
19,CCCS(=O)(=O)N1CCN(S(=O)(=O)c2ccccc2[N+](=O)[O-])CC1,6.9
